Experimental data as given in paper PMC9574860, “Chemical Toolkit for PARK7: Potent, Selective, and High-Throughput” (Journal of Medicinal Chemistry, 2022).
Screen size: about 7,900 compounds; about 400 (5.1%) showed an effect of 50% or more. This is one part of the list.

Each compound was assayed against Parkinson's disease protein 7 (PARK7/DJ1) (human, UniProt Q99497) (assay: primary screen, percent inhibition; read as competition with a fluorescent probe by fluorescence polarization; higher = more effect of the substance). Details: 100 µM.
How it was run: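 Covalent fragments at 100 μM final were incubated 2 h with 0.2 μM PARK7, then 20 nM probe JYQ-107 added for a further 2 h. Fluorescence polarization read at 480/520 nm; relative FP loss versus reference controls gave remaining enzyme activity.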

Parkinson's disease protein 7 (PARK7/DJ1), sequence (Q99497 whole entry, looked up, the tested form may be a part): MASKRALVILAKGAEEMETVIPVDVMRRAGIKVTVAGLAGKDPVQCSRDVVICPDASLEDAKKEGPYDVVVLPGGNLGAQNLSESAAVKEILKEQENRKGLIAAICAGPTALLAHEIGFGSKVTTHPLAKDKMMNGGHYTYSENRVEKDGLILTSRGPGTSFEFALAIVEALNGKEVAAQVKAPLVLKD

Row | Structure (SMILES) | Inhibition % [%]
1 | O=C1OCCC1N1CCC(c2c[nH]c3ccccc23)CC1 (centres unmarked) | 2.06
2 | C#CC(=O)c1ccc(C)cc1 | 9.15
3 | C=CC(=O)Nc1cnc2ccnn2c1 | -1.74
4 | Cc1ccccc1CC(=O)N1CCCCC1C1OCCO1 (centres unmarked) | 6.69
5 | O=C(CCl)Nc1ccnn1Cc1cccs1 | 20.3
6 | CN(Cc1ccc(F)cc1)C1CCOC1=O (centres unmarked) | 3.72
7 | CN(C)C(=O)OCCn1ccnc1C#N | 4.49
8 | N#Cc1cccc(N2CC(O)CC2c2ccccc2)n1 (centres unmarked) | 96.9
9 | CCn1ccnc1SC1CC(C)OC1=O (centres unmarked) | 7.42
10 | O=C(NCCCS(=O)(=O)F)c1cccs1 | 98.9
11 | CC(NC(=O)C(C#N)=Cc1ccco1)c1cccnc1 (centres unmarked) | 22.8
12 | O=C(O)Cc1ccc(S(=O)(=O)F)cc1 | 89.7
13 | C=CC(=O)NCC(=O)N1CCOCC1 | 4.2
14 | Cn1c(=O)c2[nH]c(SCC3CO3)nc2n(C)c1=O (centres unmarked) | 9.31
15 | C=CC(=O)NC(c1nc(C2CC2)no1)C(C)C (centres unmarked) | 11
16 | C=CC(=O)NCc1cc(Br)no1 | 7.52
17 | C=CC(=O)N1CCC(OCC)C(C)(C)C1 (centres unmarked) | 14.7
18 | CC(C)(C)NC(=O)CN1CCN(C(=O)CCl)CC1 | 13
19 | COc1ccc(C)cc1NC(=O)CNC(=O)CCl | 12.3
20 | Cc1nc(S(=O)(=O)F)sc1C | 34.2
21 | COc1ccc(F)cc1S(=O)(=O)n1ccnc1 | 6.46
22 | C=CC(=O)NC1CCCCNC1=O (centres unmarked) | 3.54
23 | CCC(C)NC(=O)Cn1cnc(C#N)n1 (centres unmarked) | 8.24
24 | O=S(=O)(F)[C@@H]1CN(Cc2ccccc2)C[C@H]1c1ccc(Cl)cc1 (racemic) | 6.55
25 | CCOc1cc(C)c(C)cc1S(=O)(=O)n1ccnc1C | 2.71

Row | Structure (SMILES) | Inhibition % [%]
26 | Cn1c(N)c(C(=O)CCl)c(=O)[nH]c1=O | 45.2
27 | Cc1cc(C)n(S(=O)(=O)N2CCCCC2)n1 | 7.02
28 | Cc1cc(Cl)ccc1NC(=O)CCl | 16.8
29 | C=CC(=O)NC1CCN(c2ccccc2F)C1 (centres unmarked) | 9.68
30 | CCC1(C)CN(C(=O)c2cccnc2S)CCO1 (centres unmarked) | 4.06
31 | O=C(CCl)Nc1nc(-c2cccc([N+](=O)[O-])c2)cs1 | 14.8
32 | CC1(C)OB(c2ccc(Br)cc2)OC1(C)C | 5.6
33 | CN1CCN(Cc2ccc(F)cc2B2OC(C)(C)C(C)(C)O2)CC1 | 6.52
34 | Clc1ccccc1OCC1CO1 (centres unmarked) | 3.31
35 | Cc1cc(C(=O)Nc2cccc(S(=O)(=O)F)c2)c(C(F)(F)F)o1 | 96.8
36 | CNc1cccnc1C#N | 10.4
37 | COCc1ccc(C=C(C#N)C(N)=O)cc1 | 4.17
38 | CC(=O)NCc1cccc(N2CCC2=O)c1 | 7.51
39 | CN(C)CCn1c(S)nc2ccccc2c1=O | 82.9
40 | Cc1ccc(S(=O)(=O)C(C#N)=Cc2ccc(C)o2)cc1 | 4.24
41 | Cc1ccc(-c2nnc(SC3CC(C)OC3=O)o2)cc1 (centres unmarked) | 7.51
42 | C=CC(=O)Nc1cc(Cl)cc2c1OCC2 | 7.15
43 | CC1CC(NC(=O)Nc2ccc(C3CC3)nn2)C(=O)O1 (centres unmarked) | 8.07
44 | COc1ccc(B2OC(C)(C)C(C)(C)O2)c(C#N)c1 | 7.16
45 | c1ccc2c(c1)CCCC2OCC1CO1 (centres unmarked) | 4.25
46 | C=CC(=O)N1CCc2c(cccc2OC)C1 | 13.7
47 | Nc1ccc2nc(S)ccc2c1 | 67.6
48 | N#Cc1ncn(CCC(=O)Nc2ccccc2Cl)n1 | 15.8
49 | O=C(Cn1ncc2ccccc21)Nc1cccc(S(=O)(=O)F)c1 | 94.6
50 | FC(F)(F)c1nnc(CCCCl)o1 | 5.87

Row | Structure (SMILES) | Inhibition % [%]
51 | CN(Cc1cccc(B(O)O)c1)C1CC1.Cl | 3.76
52 | COc1ccccc1C(=O)Nc1cccc(S(=O)(=O)F)c1 | 4.59
53 | N[C@H]1CCN(C(=O)C=Cc2ccc3ccc(Cl)cc3n2)C1 | 11.3
54 | CC1(O)CCC(Nc2ccc(C#N)nc2)CC1 (centres unmarked) | 1.91
55 | CC(C)(C)OC(=O)N1CCC(B2OC(C)(C)C(C)(C)O2)C1 (centres unmarked) | 1.29
56 | CN(C(=O)c1ccc2c(=O)[nH]c(S)nc2c1)C1CCC1 | 10.1
57 | C=CC(=O)N[C@@H]1CCO[C@H]1C1CC1 (racemic) | 5.07
58 | N#CC(C(N)=O)=C1CCCCCC1 | 5.19
59 | CC1CC(C)CN(C(=O)Cn2cnc(C#N)n2)C1 (centres unmarked) | 11.7
60 | CC1(C)C(=O)NC1c1ccco1 (centres unmarked) | 1.96
61 | C=CCNc1oc(-c2ccc(OC)cc2)nc1C#N | 1.47
62 | c1ccc(CN2CCC3(CC2)CO3)cc1 | 6.87
63 | CN(C)C(=O)Oc1ccnc2cc(Cl)ccc12 | 11
64 | Cc1cccc2c(=O)[nH]c(C(Cl)=Cc3ccnn3C)nc12 | 6.42
65 | C=CC(=O)N1CCC(N2CCCC2=O)CC1 | 6.03
66 | Cl.O=C(CCl)N1CCN(Cc2ccco2)CC1 | 20.2
67 | CC12CO[B-](c3ncccc3Cl)(OC1)OC2.[Li+] | 1.28
68 | CC(NC(=O)Cn1cnc(C#N)n1)c1ccccc1Cl (centres unmarked) | 3.87
69 | C=CC(=O)N(C)CC(=O)N[C@H]1CCc2cc(Cl)ccc21 | 9.39
70 | C=CC(=O)NC1CCOC2(CCCC2)C1 (centres unmarked) | 4.69
71 | C=CC(=O)NC(C(C)C)C1(CO)CC=CC1 (centres unmarked) | 16.2
72 | O=C(CCl)NCCc1nc2ccccc2s1 | 34.5
73 | C=CC(=O)NC1CCCN(c2ccc(C)nn2)C1 (centres unmarked) | 8.27
74 | CC(Cn1cccn1)NS(=O)(=O)C=Cc1ccccc1 (centres unmarked) | 6.68
75 | O=C1CCC(=O)N1CCCc1ccc(Cl)cc1 | 3.23

Row | Structure (SMILES) | Inhibition % [%]
76 | O=C(C1CCOCC1)N1CCC(CS(=O)(=O)F)CC1 | 20.1
77 | Cc1cc2nccnc2cc1B1OC(C)(C)C(C)(C)O1 | 1.47
78 | O=C(Oc1ccc2c(c1)CCC2)N1CCOCC1 | 0.585
79 | N#Cc1cncc(Cl)n1 | 8.35
80 | C=CC(=O)Nc1ccc(O)c(C(=O)O)c1 | 7.4
81 | C=CC(=O)N1CCN(c2nccc(C(F)(F)F)n2)CC1 | 1.23
82 | Clc1ccc(C2CO2)cc1 (centres unmarked) | 10.2
83 | C=CC(=O)N1CCCC2(CCCC2)CC1 | 15.7
84 | CC1CN(C(=O)C=Cc2ccnc3ccccc23)CCN1 (centres unmarked) | 5.15
85 | N#Cc1ncccc1-n1cccn1 | 4.45
86 | C=CC(=O)N1C2CCC1C(CO)C2 (centres unmarked) | 5.32
87 | CC(C)(C)OC(=O)NCc1cccc(B2OC(C)(C)C(C)(C)O2)c1 | 10.2
88 | C=CC(=O)N1CCS(=O)(=O)CC(C)C1 (centres unmarked) | 7.14
89 | C=CC(=O)NCC1CC(C)(C)C1 | 11.3
90 | N#Cc1ccccc1NS(=O)(=O)C=Cc1ccccc1 | 8.21
91 | N#CC1(CCl)CCCC1 | 3.71
92 | Cc1cccc2cc(B(O)O)sc12 | 37.2
93 | C=CC(=O)N1CCCC(S(C)(=O)=O)C1 (centres unmarked) | 4.21
94 | Cc1nn(C)c(C)c1NC(=O)CCl | 11.3
95 | C=CC(=O)NC1COc2c1ccc(C)c2C (centres unmarked) | 6.65
96 | N#Cc1c(Cl)nc(N)n1-c1ccccc1 | 4.52
97 | Cc1cccnc1NC(=O)CCl.Cl | 28.9
98 | N#Cc1cc(OC2CCC2)ccn1 | 2.96
99 | Cc1ncsc1CCCl | 6.62
100 | Cc1cc(F)c(C(=O)CCl)cc1F | 5.49

Row | Structure (SMILES) | Inhibition % [%]
101 | C=CC(=O)NCc1cccc(C(F)(F)F)c1 | -0.162
102 | N#Cc1nccnc1NC1CC=CCC1 (centres unmarked) | 2.1
103 | COc1cc(C=C(C#N)c2nc(C)cs2)ccc1O | -184
104 | Cl.O=C(CCl)Nc1ccc(CN2CCOCC2)cc1 | 40.1
105 | O=C(O)CCN1CCSC1=O | 2.95
106 | O=C(C=Cc1ccncc1)N1CCN(c2nccs2)CC1 | 14.9
107 | Cn1cc(CN2C[C@H](F)C[C@H]2C(N)=O)cc1C#N | 7.61
108 | Cc1ccc(S(=O)(=O)n2nc(C)cc2C)c(C)c1 | 5.09
109 | CS(=O)(=O)OC1CCOC2(CCCC2)C1 (centres unmarked) | 9.92
110 | C=CC(=O)Nc1ccc2c(c1)NC(=O)CO2 | 7.6
111 | NC(=O)c1ccccc1NS(=O)(=O)C=Cc1ccccc1 | 4.95
112 | N#CC(=Cc1ccsc1)C(=O)NCc1ccccc1 | 18
113 | C=CC(=O)NC(C)(C)C1CCCCO1 (centres unmarked) | 9.38
114 | COC(=O)C1CC(S(=O)(=O)F)CN1C(=O)c1cccs1 (centres unmarked) | 11
115 | OC1(CC2CO2)CCC1 (centres unmarked) | 5.65
116 | C=CC(=O)NCC1CC12CCOCC2 (centres unmarked) | 10.7
117 | Cc1nc(C=CC(=O)N2CCOCC2)cs1 | -0.955
118 | O=c1oc2cc(OCC3CO3)ccc2c2c1CCC2 (centres unmarked) | 10.6
119 | N#Cc1ncn(CC(=O)N2CCCCCC2)n1 | 13.4
120 | CCc1ccc(C(C)NC(=O)Cn2cnc(C#N)n2)cc1 (centres unmarked) | 1.36
121 | Cc1cccc(NC(=O)CN2CCSC2=O)c1 | 7.14
122 | C=CC(=O)N1CCC[C@@H]1CS(C)(=O)=O | 8.71
123 | CC(C)C(C)NS(=O)(=O)C=Cc1ccccc1 (centres unmarked) | 5.76
124 | Cn1c(=O)n(CCS(=O)(=O)F)c2cnccc21 | 16.5
125 | NC(=O)CCN(C(=O)CCl)c1ccccc1 | 67.4
